# The supplement of paper PMC12217912
# The list shows a part of the results. Sequences were assembled here from the parent chain. Values near 0.05 are background.
# B1: TEV protease; numbered along this chain (parent)
# chain: MGESLFKGPRDYNPISSSICHLTNESDGHTTSLYGIGFGPFIITNKHLFRRNNGTLVVQSLHGVFKVKDTTTLQQHLVDGRDMIIIRMPKDFPPFPQKLKFREPQREERICLVTTNFQTKSMSSMVSDTSCTFPSGDGIFWKHWIQTKDGQCGSPLVSTRDGFIVGIHSASNFTNTNNYFTSVPKNFMELLTNQEAQQWVSGWRLNADSVLWGGHKVFMVKPEEPFQPVKEATQL
# Variants of: B1
# Experiment: raw area under fraction-flipped curve 0-4 h after induction (AUC4h, not background-subtracted), DNA-recorder readout of cleavage of the substrate (dimensionless); higher = more cleavage of the substrate by the protease variant
# Details: temperature: 34 °C; time window: 0-4 h after rhamnose induction
# Method: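 In vivo DNA recorder in E. coli TOP10(DE3) ΔrhaA at 34 °C. Each TEVp single-site mutant (parent TEVp 0) is paired with a single-site variant of the 7-mer TEVs (canonical ENLYFQ|S). The substrate sits between flexible linkers in a Bxb1-sfGFP-TEVs-SsrA fusion, so cleavage stabilises Bxb1 and speeds flipping of a recombination array, read by NGS. The value is the raw area under the fraction-flipped curve over 0-4 h after rhamnose induction (AUC4h), with ≥20 reads per time point. It is not background-subtracted; inactive controls average about 0.047.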
# 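Further: Bxb1 expression induced with 0.2% (w/v) L-rhamnose at OD600 near 0.5, cultures sampled hourly, flipped fraction per protease–substrate barcode pair counted by paired-end Illumina sequencing.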
Variant,area with substrate ENAYFQS,area with substrate ENFYFQS,area with substrate ENGYFQS,area with substrate ENIYFQS,area with substrate ENQYFQS,area with substrate ENRYFQS,area with substrate ENSYFQS,area with substrate ENTYFQS,area with substrate ENVYFQS,area with substrate ENWYFQS,area with substrate ENDYFQS,area with substrate ENEYFQS,area with substrate ENNYFQS,area with substrate ENPYFQS,area with substrate ENYYFQS,area with substrate ENKYFQS,area with substrate ENCYFQS,area with substrate ENHYFQS,area with substrate ENMYFQS
W212I,0.0741,0.0715,0.0806,0.122,0.0706,0.058,0.0707,0.0631,0.11,0.0732,,,,,,,,,
W212T,0.0621,0.049,,,0.0573,0.0377,0.0569,0.0425,,0.0613,0.0692,0.0548,0.0531,0.0707,,,,,
G213I,0.0691,,0.0547,0.0413,0.0574,0.0489,,0.0428,,0.0443,0.0577,0.0782,,,0.0479,,,,
G213P,0.0735,,,,0.0626,,,,,,,0.0433,,0.0604,0.0627,,,,
G214L,0.0529,0.0541,,0.0655,0.067,0.0579,0.0572,0.0558,0.0668,,0.0685,0.0523,,,,0.0721,,,
H215Y,0.0447,0.0624,0.0604,,0.0358,0.0722,,,0.0545,,,0.0873,0.0782,,,,,,
K216E,0.0664,,,,0.0619,0.0717,,,0.0692,,0.0599,,0.0585,,,,,,
K216Y,0.0551,0.0582,,0.0525,0.0591,,,,0.0647,,0.0637,,,,0.0434,,0.0438,0.0519,
V217M,0.0545,0.0592,0.06,,,0.0543,0.0731,,0.0667,0.0626,0.0639,0.062,,,,0.0605,0.076,0.0501,0.0577
F218E,0.0457,0.0628,0.0663,,0.0496,0.0617,0.0664,0.0479,0.0615,,0.0663,0.058,0.0588,0.0596,,0.0564,,0.0531,
F218Q,0.0543,0.063,0.0566,0.117,0.0523,,0.0685,0.0811,,0.0384,0.0862,0.0865,0.0617,0.0568,0.0616,0.0617,,0.0638,0.0685
V220H,0.0524,0.0587,0.0549,0.124,0.0628,0.0367,,0.0554,0.0893,0.0066,0.0546,,,0.0614,,0.0557,0.0697,0.0618,
V220K,0.0457,0.0564,,0.112,,,0.0843,0.0614,0.0884,,0.066,0.0681,,,0.04,0.0784,,,
K221P,0.0487,0.0496,0.0543,0.102,,,0.0479,,,,0.065,0.0582,0.0591,,0.0639,,0.0384,0.0748,0.0763
E223P,0.0533,0.0518,,,0.0467,0.0488,0.0682,0.0619,0.0663,,0.0636,0.0663,0.0691,,0.0659,0.0576,0.0696,,
